Laboratory results published in patent US11178870B2 (priority 2017, dated 2021).

Tests used:
Assay type in all cases: in vivo
Alternaia brassicicola = experiment: Test Example C: Alternaria sooty spot on cabbage; conditions: for Test C control value: Alternaria sooty spot on cabbage; for Test C control value (Alternaria sooty spot on cabbage): class of control value, Table 7; for control value, Test C (Alternaria sooty spot on cabbage): Table 7, Test C
Plasmopara viticola = experiment: Test Example G: Downy mildew on vine; conditions: for Test G control value: Downy mildew on vine, 250 ppm sprayed, 7 to 10 days after inoculation; for Test G control value / Test G control value (downy mildew on vine): 2.5 ml/pot; for Test G control value (downy mildew on vine): 250 ppm spray, investigated 7 to 10 days after inoculation; for control value, Test G (downy mildew on vine): 250 ppm sprayed (2.5 ml/pot) before inoculation, assessed 7 to 10 days after inoculation
[1] = test system: Blumeria graminis f. sp. hordei; experiment: Test Example D: Powdery mildew on barley; conditions: for Test D control value: Powdery mildew on barley; for Test D control value (powdery mildew on barley): class of control value, Table 7; for control value, Test D (powdery mildew on barley): Table 7, Test D
Botrytis cinerea = experiment: Test Example B: Gray mold on tomato; conditions: for Test B control value: Gray mold on tomato; for Test B control value (gray mold on tomato): class of control value, Table 7; for control value, Test B (gray mold on tomato): Table 7, Test B
Puccinia recondita = experiment: Test Example E: Brown rust on wheat; conditions: for Test E control value: Brown rust on wheat; for Test E control value (brown rust on wheat): class of control value, Table 7; for control value, Test E (brown rust on wheat): Table 7, Test E

| SMILES | Test C control value (Alternaia brassicicola) | Test G control value (Plasmopara viticola) | Test D control value [1] | Test B control value (Botrytis cinerea) | Test E control value (Puccinia recondita) | control value, Test C (Alternaria sooty spot on cabbage) (Alternaia brassicicola) | control value, Test G (downy mildew on vine) (Plasmopara viticola) | control value, Test D (powdery mildew on barley) [1] | control value, Test B (gray mold on tomato) (Botrytis cinerea) | control value, Test E (brown rust on wheat) (Puccinia recondita) | further results |
| --- | --- | --- | --- | --- | --- | --- | --- | --- | --- | --- | --- |
| CCn1c(-c2c(F)cc(OC)cc2F)c(C2OCCCO2)cc(Cl)c1=O [Compound 10] | H (H shows the control value more than 50%) | L (L shows the control value of 50% or less) | L (L shows the control value of 50% or less) | H (H shows the control value more than 50%) | L (L shows the control value of 50% or less) | – | – | – | – | – | – |
| CCOC(=O)c1cncn1-c1cc(Cl)c(=O)n(CC)c1-c1c(F)cc(F)cc1F [Compound 129] | H (H shows the control value more than 50%) | H (H shows the control value more than 50%) | L (L shows the control value of 50% or less) | L (L shows the control value of 50% or less) | L (L shows the control value of 50% or less) | – | – | – | – | – | – |
| Cn1c(-c2c(F)cccc2F)c(-c2cccnc2Cl)ccc1=O [Compound 99] | H (H shows the control value more than 50%) | H (H shows the control value more than 50%) | H (H shows the control value more than 50%) | H (H shows the control value more than 50%) | H (H shows the control value more than 50%) | – | – | – | – | – | – |
| CCn1c(-c2c(F)cccc2Cl)c(-n2cc(F)cn2)ccc1=O [Compound 378] | – | – | – | – | – | – | – | – | – | – | Test C control value (Alternaria sooty spot on cabbage) (Alternaia brassicicola): H (H shows the control value more than 50%); Test G control value (downy mildew on vine) (Plasmopara viticola): L (L shows the control value of 50% or less); Test D control value (powdery mildew on barley) [1]: H (H shows the control value more than 50%); Test B control value (gray mold on tomato) (Botrytis cinerea): H (H shows the control value more than 50%); Test E control value (brown rust on wheat) (Puccinia recondita): H (H shows the control value more than 50%) |
| Cc1ccsc1-c1ccc(=O)n(CC(F)F)c1-c1c(F)cccc1F [Compound 385] | – | – | – | – | – | – | – | – | – | – | Test C control value (Alternaria sooty spot on cabbage) (Alternaia brassicicola): H (H shows the control value more than 50%); Test G control value (downy mildew on vine) (Plasmopara viticola): H (H shows the control value more than 50%); Test D control value (powdery mildew on barley) [1]: H (H shows the control value more than 50%); Test B control value (gray mold on tomato) (Botrytis cinerea): H (H shows the control value more than 50%); Test E control value (brown rust on wheat) (Puccinia recondita): H (H shows the control value more than 50%) |
| Cc1cnn(-c2cc(Br)c(=O)n(CC(F)F)c2-c2ccccc2F)c1 [Compound 309] | – | – | – | – | – | H (H shows the control value more than 50%) | L (L shows the control value of 50% or less) | H (H shows the control value more than 50%) | H (H shows the control value more than 50%) | H (H shows the control value more than 50%) | – |
| Cc1cnn(-c2cc(Br)c(=O)n(N)c2-c2c(F)cccc2F)c1Cl [Compound 473] | – | – | – | – | – | – | – | – | – | – | Test C control value (Alternaria sooty spot on cabbage) (Alternaia brassicicola): H (H shows the control value more than 50%); Test G control value (downy mildew on vine) (Plasmopara viticola): H (H shows the control value more than 50%); Test D control value (powdery mildew on barley) [1]: L (L shows the control value of 50% or less); Test B control value (gray mold on tomato) (Botrytis cinerea): H (H shows the control value more than 50%); Test E control value (brown rust on wheat) (Puccinia recondita): H (H shows the control value more than 50%) |
| CCn1c(-c2ccc(F)cc2Cl)c(-n2cc(F)cn2)ccc1=O [Compound 327] | – | – | – | – | – | H (H shows the control value more than 50%) | L (L shows the control value of 50% or less) | H (H shows the control value more than 50%) | H (H shows the control value more than 50%) | H (H shows the control value more than 50%) | – |
| CCn1c(-c2ccccc2F)c(-n2ncc(C)c2Cl)cc(Br)c1=O [Compound 264] | – | – | – | – | – | H (H shows the control value more than 50%) | L (L shows the control value of 50% or less) | L (L shows the control value of 50% or less) | H (H shows the control value more than 50%) | H (H shows the control value more than 50%) | – |
| COc1cc(F)c(-c2c(-n3cc(Cl)cn3)cc(Cl)c(=O)n2CC(F)(F)F)c(F)c1 [Compound 122] | H (H shows the control value more than 50%) | L (L shows the control value of 50% or less) | H (H shows the control value more than 50%) | H (H shows the control value more than 50%) | H (H shows the control value more than 50%) | – | – | – | – | – | – |
| CCn1c(-c2c(F)cc(OC)cc2F)c(-c2c(Cl)cnn2C)cc(Cl)c1=O [Compound 29] | H (H shows the control value more than 50%) | L (L shows the control value of 50% or less) | H (H shows the control value more than 50%) | H (H shows the control value more than 50%) | H (H shows the control value more than 50%) | – | – | – | – | – | – |
| CCOc1cc(F)c(-c2c(-n3cc(F)cn3)cc(Br)c(=O)n2CC)c(F)c1 [Compound 317] | – | – | – | – | – | H (H shows the control value more than 50%) | L (L shows the control value of 50% or less) | L (L shows the control value of 50% or less) | H (H shows the control value more than 50%) | H (H shows the control value more than 50%) | – |
| CCOc1cc(F)c(-c2c(-n3cc(F)cn3)cc(Cl)c(=O)n2CC)c(F)c1 [Compound 316] | – | – | – | – | – | H (H shows the control value more than 50%) | L (L shows the control value of 50% or less) | H (H shows the control value more than 50%) | H (H shows the control value more than 50%) | H (H shows the control value more than 50%) | – |
| CCn1c(-c2c(F)cccc2F)c(-c2cccnc2Cl)cc(I)c1=O [Compound 65] | H (H shows the control value more than 50%) | H (H shows the control value more than 50%) | H (H shows the control value more than 50%) | H (H shows the control value more than 50%) | H (H shows the control value more than 50%) | – | – | – | – | – | – |
| CCn1c(-c2c(F)cc(OC)c(I)c2F)c(-n2cc(Cl)cn2)cc(I)c1=O [Compound 253] | – | – | – | – | – | H (H shows the control value more than 50%) | L (L shows the control value of 50% or less) | L (L shows the control value of 50% or less) | H (H shows the control value more than 50%) | H (H shows the control value more than 50%) | – |
| CCn1c(-c2c(F)cccc2F)c(-c2oc(I)nc2I)cc(Cl)c1=O [Compound 75] | H (H shows the control value more than 50%) | L (L shows the control value of 50% or less) | L (L shows the control value of 50% or less) | H (H shows the control value more than 50%) | L (L shows the control value of 50% or less) | – | – | – | – | – | – |
